Source: patent publication US20240325499A1, “FGF21 COMPOUND / GLP-1R AGONIST COMBINATIONS WITH OPTIMIZED ACTIVITY RATIO” (SANOFI, priority 2018, published 2024)

B1: 25 (protein)
chain: HGEGTFTSDLSKQLEEEAVQLFIEWLLATGPSSGAPPPSGGGGGGGSGGGGSGGGGSA[sequence of human IgG4 Fc with changes not given]GGGSGSAHPIPDSSPLLQFGGQVRQRYLYTDDACQTEAHLEIREDGTVGGAADQSPESLLQLKALKPGVIQILGVKTSRFLCQRPDGALYGSLHFDPEACSFRELLLEDGYNVYQSEAHGLPLHLPGCKSPHRDPAPRGPARFLPLPGLPPAPPEPPGILAPQPPDVGSSDPLSMVYPSQGRSPSYAS
modifications: GLP1(7-36) A8G,V16L,S18K,Y19Q,G22E,Q23E,A25V,K26Q,E27L,A30E,V33L,K34A,G35T,R 36G,insPSSGAPPPS_[19GS] _IgG4 Fc variant_[7GS]_FGF21(His29-Ser209)Q55C,N149C,G198Y
B2: 35 (protein)
chain: HGEGTFTSDLSKQLEEEAVQLFIEWLEATGPSSGAPPPSGGGGGGGSGGGGSGGGGSA[sequence of human IgG4 Fc with changes not given]GGGSGSAHPIPDSSPLLQFGGQVRQRYLYTDDACQTEAHLEIREDGTVGGAADQSPESLLQLKALKPGVIQILGVKTSRFLCQRPDGALYGSLHFDPEACSFRELLLEDGYNVYQSEAHGLPLHLPGCKSPHRDPAPRGPARFLPLPGLPPAPPEPPGILAPQPPDVGSSDPLSMVGSQGRSPSYAS
modifications: GLP1(7-36) A8G,V16L,S18K,Y19Q,G22E,Q23E,A25V,K26Q,E27L,A30E,V33E,K34A,G35T,R 36G,insPSSGAPPPS_[19GS]_IgG4 Fc_variant [7GS]_FGF21(His29-Ser209)Q55C,N149C,delP199
B3: 28 (protein)
chain: GHGEGTFTSDLSIQLEEEAVRLFIEWLLAGGPSSGAPPPSGGGGGGGSGGGGSGGGGSA[sequence of human IgG4 Fc with changes not given]GGGSGSAHPIPDSSPLLQFGGQVRQRYLYTDDACQTEAHLEIREDGTVGGAADQSPESLLQLKALKPGVIQILGVKTSRFLCQRPDGALYGSLHFDPEACSFRELLLEDGYNVYQSEAHGLPLHLPGCKSPHRDPAPRGPARFLPLPGLPPAPPEPPGILAPQPPDVGSSDPLSMVGSQGRSPSYAS
modifications: GLP1(7-36) insG,A8G,V16L,S18I,Y19Q,G22E,Q23E,A25V,K26R,E27L,A30E,V33L,K34A,R 36G,insPSSGAPPPS_[19GS] _IgG4 Fc_variant [7GS]_FGF21(His29-Ser209)Q55C,N149C,delP199
B4: 29 (protein)
chain: GHGEGTFTSDLSIQLEEEAVRLFIEWLLATGPSSGAPPPSGGGGGGGSGGGGSGGGGSA[sequence of human IgG4 Fc with changes not given]GGGSGSAHPIPDSSPLLQFGGQVRQRYLYTDDACQTEAHLEIREDGTVGGAADQSPESLLQLKALKPGVIQILGVKTSRFLCQRPDGALYGSLHFDPEACSFRELLLEDGYNVYQSEAHGLPLHLCGNKSPHRDPAPRGPARFLPLPGLPPAPPEPPGILAPQPPDVGSSDPLSMVGSQGRSPSYAS
modifications: GLP1(7-36) insG,A8G,V16L,S18I,Y19Q,G22E,Q23E,A25V,K26R,E27L,A30E,V33L,K34A,G 35T,R36G,insPSSGAPPPS_[19GS]_Ig4G Fc_variant [7GS]_FGF21(His29-Ser209)Q55C,P147C,delP199
B5: 34 (protein)
chain: GHGEGTFTSDLSKQLEEERVQEFIEWLVKGRPSSGAPPPSGGGGGGGSGGGGSGGGGSA[sequence of human IgG4 Fc with changes not given]GGGSGSAHPIPDSSPLLQFGGQVRQRYLYTDDACQTEAHLEIREDGTVGGAADQSPESLLQLKALKPGVIQILGVKTSRFLCQRPDGALYGSLHFDPEACSFRELLLEDGYNVYQSEAHGLPLHLPGCKSPHRDPAPRGPARFLPLPGLPPAPPEPPGILAPQPPDVGSSDPLSMVGSQGRSPSYAS
modifications: GLP1(7-36) insG,A8G,V16L,S18K,Y19Q,G22E,Q23E,A24R,A25V,K26Q,A30E,insPSSGAPPP S_[19GS]_IgG4 Fc_variant [7GS]_FGF21(His29-Ser209)Q55C,N149C,delP199

Target: T1, human GLP-1 receptor (Homo sapiens, UniProt P43220)
T1 construct: expressed in transfected cells; host or cells: HEK-293 cell line
Assay: cAMP response (HTRF) in HEK-293 cell line stably expressing human GLP-1 receptor
Assay type: cell-based
Settings: for EC50: cAMP response, HEK-293 cells stably expressing human GLP-1 receptor; for Ratio GLP-1R agonistic activity: native GLP-1(7-36)/tested GLP-1R agonist: ratio X = activity X-fold reduced versus native GLP-1(7-36), HEK-293, cAMP
Method: The cAMP content of cells was determined using a kit from Cisbio Corp. (cat. no. 62AM4PEC) based on HTRF (Homogenous Time Resolved Fluorescence). For preparation, cells were split into T175 culture flasks and grown overnight to near confluence in medium (DMEM/10% FBS). Medium was then removed and cells washed with PBS lacking calcium and magnesium, followed by proteinase treatment with accutase (Sigma-Aldrich cat. no. A6964). Detached cells were washed and resuspended in assay buffer (1x HBSS; 20 mM HEPES, 0.1% BSA, 2 mM IBMX) and cellular density determined. They were then diluted to 4×10^5 cells/mL and 25 μL-aliquots dispensed into the wells of 96-well plates. For measurement, 25 μL of test compound in assay buffer was added to the wells, followed by incubation for 30 minutes at room temperature. After addition of HTRF reagents diluted in lysis buffer (kit components), the plates were incubated for 1 h, followed by measurement of the fluorescence ratio at 665/620 nm.

T1 sequence (P43220 24-463): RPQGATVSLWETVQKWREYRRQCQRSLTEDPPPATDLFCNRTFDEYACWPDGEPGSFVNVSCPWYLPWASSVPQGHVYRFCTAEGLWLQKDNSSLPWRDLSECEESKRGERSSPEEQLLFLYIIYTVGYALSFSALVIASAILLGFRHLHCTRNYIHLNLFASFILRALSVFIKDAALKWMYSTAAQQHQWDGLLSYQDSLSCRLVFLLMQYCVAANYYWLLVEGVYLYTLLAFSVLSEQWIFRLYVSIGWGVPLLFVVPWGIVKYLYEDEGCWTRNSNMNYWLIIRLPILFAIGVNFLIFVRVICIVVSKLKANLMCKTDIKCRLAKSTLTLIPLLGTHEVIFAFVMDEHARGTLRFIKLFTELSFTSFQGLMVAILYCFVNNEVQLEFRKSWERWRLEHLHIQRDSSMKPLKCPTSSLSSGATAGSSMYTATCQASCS

Row | Molecule | EC50 [nM] | Ratio GLP-1R agonistic activity: native GLP-1(7-36)/tested GLP-1R agonist
1 | B1 | 0.0417 | 54.1
2 | B2 | 0.134 | 174.1
3 | B3 | 0.197 | 256.4
4 | B4 | 0.591 | 767.8
5 | B5 | 0.985 | 1279.0
